Reference: the supplement of paper PMC11417369
This is one part of the list.

tested on: PF3D7_0420300 AP2 domain 1 (GST-tagged); assay: gcPBM binding intensity (ln(normalized median fluorescence intensity)); higher = stronger DNA binding
Method in brief: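 For binding intensity, the highest Masliner-normalised natural-log median intensity across replicate spots of either probe orientation was taken. Protein bound to the array was stained with Alexa488 anti-GST antibody and scanned at 488 nm. The protein, GST-tagged P. falciparum DNA-binding domains from E. coli at about 25 μg on average, had been applied for 1 h to an Agilent 4 × 180k array of primer-extended double-stranded 36-bp intergenic genomic probes and negative controls.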

First: TAAATTTTTTCCTCCTGTACTTATTATATTTTTTTG [XGTACX_site1572]
Second: ATTAATTCGTTTTGTACACACATAATGAGTAATTTA [CACACA_site7118]
The “gcPBM binding intensity (ln)” value of the first is higher: 9.47 for the first, 9.44 for the second.

First: ATAAAAATTGATTATACACACGCGCCCAGACAACAA [CACACA_site5870]
Second: ATATAGATGCATAATACACACATCAGATAATTAACC [CACACA_site6871]
The “gcPBM binding intensity (ln)” value of the first is higher: 9.85 for the first, 9.78 for the second.

Going from “ACAAGGTTTACGGGTAGTACAAATTTTTGAACATCT [XGTACX_site4739]” to “TTTTTTTTTTTTTTTTGTACTCATATCTACTATCAT [XGTACX_site274]”, the “gcPBM binding intensity (ln)” value falls from 9.07 to 8.84.

Compared with “AGCCAAACCTTAAATTTAGCAATAAGTTTACAGGTC [CACACA_negctrl_site360]”, “ATTAAAAGTTTATACAAATAAAAAACAAAACAAAAA [CACACA_negctrl_site1030]” is higher in “gcPBM binding intensity (ln)” value: 9.04 for the first, 9.41 for the second.

Going from “AATGTTTTATTTTGAAGTACATTTAAGAATTTTTTA [XGTACX_site7814]” to “TATATATGCATATACATACACACATAACACATACGT [CACACA_site3833]”, the “gcPBM binding intensity (ln)” value rises from 8.99 to 9.66.

Compared with “ATATAATAATAAGGCACACAAATTAAAATATAAAAA [CACACA_site3710]”, “TTATGCCTTTAATATACACACTAATATTTTTTTGGC [CACACA_site5171]” is lower in “gcPBM binding intensity (ln)” value: 9.58 for the first, 9.27 for the second.

Going from “AATTTTTTTTTTAGACGTACAAGAAAAAACAAAAAA [XGTACX_site4990]” to “TATATGAAGTACACAATACACACTAATTATATATAA [CACACA_site2608]”, the “gcPBM binding intensity (ln)” value rises from 9.18 to 9.6.

Compared with “AACTATAAAAATTTTACACACTGTTTTTAAATAATG [CACACA_site5928]”, “TGTGTATTTATAAATACACACCAAATGTTAATATAT [CACACA_site6904]” is lower in “gcPBM binding intensity (ln)” value: 9.4 for the first, 9.36 for the second.

Going from “GTAAAATGATATAAATGTACATAATATATATATGTC [XGTACX_site4049]” to “TGTCATATTATAAATTGTACAAATAGTATAATTATT [XGTACX_site581]”, the “gcPBM binding intensity (ln)” value falls from 9.43 to 9.15.

First: ATTTTATCTTTAAACTGTACGTATTAATATGTAGAA [XGTACX_site3077]
Second: AGTATACATATATATACACACATATATATATATATA [CACACA_site300]
The “gcPBM binding intensity (ln)” value of the first is lower: 9.14 for the first, 9.42 for the second.

Compared with “ATAAAAATATTATAAGCACACATATATATATATATA [CACACA_site8781]”, “TTAACATATTTGTTAGTGCATTTTGATATTACACAT [GTGCAC_site9978]” is higher in “gcPBM binding intensity (ln)” value: 9.16 for the first, 9.35 for the second.

Compared with “AAAAAAATTAAATGTACACACACCTTAAACAATGTC [CACACA_site1855]”, “CTAATATCTGTATGCACACACAATAAATACATATTT [CACACA_site5797]” is lower in “gcPBM binding intensity (ln)” value: 9.72 for the first, 9.6 for the second.

Compared with “ATAAATAAATAAATAAATAAATAAATAAATATATAT [CACACA_negctrl_site1728]”, “ATTTATTTTATATGTTGTACAAACATTTTAAAACAT [XGTACX_site6919]” is lower in “gcPBM binding intensity (ln)” value: 9.3 for the first, 9.06 for the second.

Compared with TCTTTTTCTTGACGAGTGCAAAAATTGTGTTTGAAA, “AATGCCTTGTTGAGGTGTACTGAATGTTATTTTAAT [XGTACX_site3255]” is higher in “gcPBM binding intensity (ln)” value: 8.95 for the first, 9.19 for the second.

Compared with “TTTTTTTAAAGAATTATCATAAAATGATTGCATCAT [XGTACX_negctrl_site141]”, “AAGGAAATATAATATACACACATAAGTGTACTTATA [CACACA_site4030]” is higher in “gcPBM binding intensity (ln)” value: 8.69 for the first, 9.52 for the second.

Compared with “GAAAAATTAAAAATAACACACACATATATATATTTA [CACACA_site8896]”, “ATTATATATCCCTATTCACACATGTATTATATAAAT [CACACA_site5486]” is lower in “gcPBM binding intensity (ln)” value: 9.78 for the first, 9.57 for the second.

First: TAATAAAGTGAATAATGTACATTTTATTTATTATAT [XGTACX_site6614]
Second: TCAGTAATACTTGAATGTACTTATATTGTTTGTTTG [XGTACX_site6449]
The “gcPBM binding intensity (ln)” value of the first is lower: 9.07 for the first, 9.47 for the second.

Compared with “CCTATATTAAAACAAGCACACAATCGCATAATATCC [CACACA_site9052]”, “TATATAATAAAAAAAAGTACTTGGACAATATTATTT [XGTACX_site2802]” is lower in “gcPBM binding intensity (ln)” value: 9.72 for the first, 9.32 for the second.

Compared with “ATCAAAATATTTATATGTACATATTAAAAATATAGA [XGTACX_site725]”, “TTAATTTACATGAACTGTACATAACATTTTTTTAAA [XGTACX_site4672]” is lower in “gcPBM binding intensity (ln)” value: 9.06 for the first, 8.96 for the second.

First: ATCAACATCTAACATTGTACATGTGATGTGTAAAAG [XGTACX_site547]
Second: ATATTTGCCCAAGATAGTACATATATATATATATAT [XGTACX_site7756]
The “gcPBM binding intensity (ln)” value of the first is lower: 9.14 for the first, 9.44 for the second.

First: ATATTGGAGCACAACACACACAAGTATATATATGGA [CACACA_site1546]
Second: TATATATATATATATTGTACATATATTATTATATAT [XGTACX_site7447]
The “gcPBM binding intensity (ln)” value of the first is higher: 9.79 for the first, 9.16 for the second.

Going from “AAATAGCCAAAAATCATGCACACCTAAAAAAAAAAA [CACACA_site2572]” to “AATTCTCTTAATAAATAAACACAAATAAATAATAAA [GTGCAC_negctrl_site499]”, the “gcPBM binding intensity (ln)” value falls from 9.42 to 9.16.

First: CATACATACAAACACACACACACACCGATATATATA [CACACA_site8952]
Second: CACATACAGACATACACACACATATATATTAATATA [CACACA_site546]
The “gcPBM binding intensity (ln)” value of the first is higher: 10.3 for the first, 9.95 for the second.

First: TTATTTATAATGTTGTGTACATATATGAATATACCA [XGTACX_site3111]
Second: AAGAAAAAATAAAGCACACAAATATTTTAAAAACAC [CACACA_site3325]
The “gcPBM binding intensity (ln)” value of the first is lower: 9.07 for the first, 9.94 for the second.

Compared with GATATATATACATGTGTGCACCATGCAACTTGTTTT, “TTTTTTCAATTGGAAATTATTTTACAATGAAGGGTA [XGTACX_negctrl_site469]” is lower in “gcPBM binding intensity (ln)” value: 9.59 for the first, 8.84 for the second.

First: TATTTTACGTATTGTTGTACTTGAAACAAATATACA [XGTACX_site8778]
Second: TATAAACATAAATATACACACAAACATATATGTATT [CACACA_site8324]
The “gcPBM binding intensity (ln)” value of the first is lower: 8.99 for the first, 9.85 for the second.

First: CGTTTCCCCAATGGTTGTACAATATATATATATATA [XGTACX_site8641]
Second: AGACATATAATATATACACACATATATATATATATA [CACACA_site1066]
The “gcPBM binding intensity (ln)” value of the first is higher: 9.47 for the first, 9.36 for the second.

Going from “TTGTGTTTTATTATTTTATTATTACTATTATAATGT [GTGCAC_negctrl_site484]” to “ATAAAACATAAATACATACACACATAATATATATTA [CACACA_site110]”, the “gcPBM binding intensity (ln)” value rises from 9.62 to 9.88.

With “TAAAAATGGGTATGTACACACTTTATTTTTAATACA [CACACA_site5404]” the “gcPBM binding intensity (ln)” value was 9.24.
